Results from patent US11814387B2, “Cyclic amide-containing pyridyl xanthines as A2B antagonists” (Purnovate, Inc., priority 2021, dated 2023).
The name of at least one read-out is uncertain.

These compounds were tested against T1, A2B adenosine receptor (Homo sapiens, UniProt P29275) (assay: A2B antagonism: percent inhibition of NECA (cyclic AMP generation in HEK 293 cells, per Cooper et al. 1997)). Settings: compound at 100 nM or 111 nM.
T1 construct: An endogenous A2B adenosine receptor coupled to cyclic AMP generation in human embryonic kidney (HEK 293) cells; endogenous in cells; host or cells: HEK 293
T1 sequence (P29275 1-332): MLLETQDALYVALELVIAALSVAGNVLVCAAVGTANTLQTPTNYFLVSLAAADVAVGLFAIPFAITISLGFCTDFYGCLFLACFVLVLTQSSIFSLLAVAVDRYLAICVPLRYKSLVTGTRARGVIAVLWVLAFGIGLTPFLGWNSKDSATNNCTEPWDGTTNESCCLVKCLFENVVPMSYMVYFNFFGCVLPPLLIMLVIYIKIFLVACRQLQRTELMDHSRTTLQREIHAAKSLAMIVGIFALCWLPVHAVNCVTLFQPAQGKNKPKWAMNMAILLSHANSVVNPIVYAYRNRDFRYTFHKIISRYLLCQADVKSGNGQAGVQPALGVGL
Assay type: cell-based
With `CCCn1c(=O)n(C2CC2)c(=O)c2[nH]c(-c3ccc(N(CCCN4CCCC4=O)C(=O)c4ccc(F)c(F)c4)nc3)nc21` [Example 1, 8-(6-{[3-(2-Oxo-1-pyrrolidinyl)propyl](3,4-difluorophenyl)carbonylamino}-3-pyridyl)-1-cyclopropyl-3-propylxanthine] the “% Inhibition of NECA (5′-N-ethylcarboxamidoadenosine)” value (from here on “% Inhibition of NECA”) was “+++ (67% to 100% = +++)”.
With `CCCn1c(=O)n(C2CC2)c(=O)c2[nH]c(-c3ccc(N(CCCN4CCCC4=O)C(=O)c4ccc(F)nc4)nc3)nc21` [Example 3, 8-(6-{[3-(2-Oxo-1-pyrrolidinyl)propyl](6-fluoro-3-pyridyl)carbonylamino}-3-pyridyl)-1-cyclopropyl-3-propylxanthine] the “% Inhibition of NECA” value was “++ (33% to 67% = ++)”.
`CCCn1c(=O)n(CCOC)c(=O)c2[nH]c(-c3ccc(N(CCCN4CCCC4=O)C(=O)c4ccc(F)c(F)c4)nc3)nc21` [Example 4, 8-(6-{[3-(2-Oxo-1-pyrrolidinyl)propyl](3,4-difluorophenyl)carbonylamino}-3-pyridyl)-1-(2-methoxyethyl)-3-propylxanthine] was tested, and the “% Inhibition of NECA” value was “+++ (67% to 100% = +++)”.
In the case of `CCCn1c(=O)n(CCOC)c(=O)c2[nH]c(-c3ccc(N(CCCN4CCCC4=O)C(=O)c4ccc(F)cc4)nc3)nc21` [Example 5, 8-(6-{[3-(2-Oxo-1-pyrrolidinyl)propyl](4-fluorophenyl)carbonylamino}-3-pyridyl)-1-(2-methoxyethyl)-3-propylxanthine], the “% Inhibition of NECA” value is reported as “+++ (67% to 100% = +++)”.
In the case of `CCCn1c(=O)n(CCOC)c(=O)c2[nH]c(-c3ccc(N(CCCN4CCCC4=O)C(=O)c4ccc(F)nc4)nc3)nc21` [Example 6, 8-(6-{[3-(2-Oxo-1-pyrrolidinyl)propyl](6-fluoro-3-pyridyl)carbonylamino}-3-pyridyl)-1-(2-methoxyethyl)-3-propylxanthine], the “% Inhibition of NECA” value is reported as “+++ (67% to 100% = +++)”.
`CCCn1c(=O)c2[nH]c(-c3ccc(N(CCCN4CCCC4=O)C(=O)c4ccc(F)c(F)c4)nc3)nc2n(CCOC)c1=O` [Example 7, 8-(6-{[3-(2-Oxo-1-pyrrolidinyl)propyl](3,4-difluorophenyl)carbonylamino}-3-pyridyl)-3-(2-methoxyethyl)-1-propylxanthine] was tested, and the “% Inhibition of NECA” value was “+ (1% to 33% = +)”.
For `CCCn1c(=O)c2[nH]c(-c3ccc(N(CCCN4CCCC4=O)C(=O)c4ccc(F)cc4)nc3)nc2n(CCOC)c1=O` [Example 8, 8-(6-{[3-(2-Oxo-1-pyrrolidinyl)propyl](4-fluorophenyl)carbonylamino}-3-pyridyl)-3-(2-methoxyethyl)-1-propylxanthine], the “% Inhibition of NECA” value was “++ (33% to 67% = ++)”.
In the case of `CCCn1c(=O)c2[nH]c(-c3ccc(N(CCCN4CCCC4=O)C(=O)c4ccc(F)nc4)nc3)nc2n(CCOC)c1=O` [Example 9, 8-(6-{[3-(2-Oxo-1-pyrrolidinyl)propyl](6-fluoro-3-pyridyl)carbonylamino}-3-pyridyl)-3-(2-methoxyethyl)-1-propylxanthine], the “% Inhibition of NECA” value is reported as “+ (1% to 33% = +)”.
For `CCCn1c(=O)n(CCCOC)c(=O)c2[nH]c(-c3ccc(N(CCCN4CCCC4=O)C(=O)c4ccc(F)c(F)c4)nc3)nc21` [Example 10, 8-(6-{[3-(2-Oxo-1-pyrrolidinyl)propyl](3,4-difluorophenyl)carbonylamino}-3-pyridyl)-1-(3-methoxypropyl)-3-propylxanthine], the “% Inhibition of NECA” value was “+++ (67% to 100% = +++)”.
`CCCn1c(=O)n(CCCN2CCCC2=O)c(=O)c2[nH]c(-c3ccc(N(CCOC)C(=O)c4ccc(F)c(F)c4)nc3)nc21` [Example 11, 8-{6-[(2-Methoxyethyl)(3,4-difluorophenyl)carbonylamino]-3-pyridyl}-1-[3-(2-Oxo-1-pyrrolidinyl)propyl]-3-propylxanthine] was tested, and the “% Inhibition of NECA” value was “++ (33% to 67% = ++)”.
For `CCCn1c(=O)n(CCCOC)c(=O)c2[nH]c(-c3ccc(N(CCCN4CCCC4=O)C(=O)c4ccc(F)nc4)nc3)nc21` [Example 12, 8-(6-{N-[3-(2-Oxo-1-pyrrolidinyl)propyl](6-fluoro-3-pyridyl)carbonylamino}-3-pyridyl)-1-(3-methoxypropyl)-3-propylxanthine], the “% Inhibition of NECA” value was “+++ (67% to 100% = +++)”.
In the case of `CCCn1c(=O)n(CCCN2CCCC2=O)c(=O)c2[nH]c(-c3ccc(N(CCOC)C(=O)c4ccc(C(F)(F)F)nc4)nc3)nc21` [Example 13, 8-{6-[N-(2-Methoxyethyl)[6-(trifluoromethyl)-3-pyridyl]carbonylamino]-3-pyridyl}-1-[3-(2-Oxo-1-pyrrolidinyl)propyl]-3-propylxanthine], the “% Inhibition of NECA” value is reported as “++ (33% to 67% = ++)”.
For `CCCn1c(=O)n(CCCN2CCCC2=O)c(=O)c2[nH]c(-c3ccc(N(CCOC)C(=O)c4ccc(F)nc4)nc3)nc21` [Example 14, 8-{6-[N-(2-Methoxyethyl)[6-fluoro-3-pyridyl]carbonylamino]-3-pyridyl}-1-[3-(2-Oxo-1-pyrrolidinyl)propyl]-3-propylxanthine], the “% Inhibition of NECA” value was “+ (1% to 33% = +)”.
`CCCn1c(=O)n(CCOC)c(=O)c2[nH]c(-c3ccc(N(CC4CC(=O)N(C)C4)C(=O)c4ccc(F)c(F)c4)nc3)nc21` (stereo not shown) [Example 15, 8-(6-{[(1-Methyl-5-oxo-3-pyrrolidinyl)methyl](3,4-difluorophenyl)carbonylamino}-3-pyridyl)-1-(2-methoxyethyl)-3-propylxanthine] was tested, and the “% Inhibition of NECA” value was “++ (33% to 67% = ++)”.
`O=C1CCCN1CCCN(C(=O)c1ccc(F)c(F)c1)c1ccc(-c2nc3c([nH]2)c(=O)n(C2CC2)c(=O)n3C2CC2)cn1` [Example 16, 8-(6-{[3-(2-Oxo-1-pyrrolidinyl)propyl](3,4-difluorophenyl)carbonylamino}-3-pyridyl)-1,3-dicyclopropylxanthine] was tested, and the “% Inhibition of NECA” value was “++ (33% to 67% = ++)”.
For `O=C1CCCN1CCCN(C(=O)c1ccc(F)nc1)c1ccc(-c2nc3c([nH]2)c(=O)n(C2CC2)c(=O)n3C2CC2)cn1` [Example 17, 8-(6-{[3-(2-Oxo-1-pyrrolidinyl)propyl](6-fluoro-3-pyridyl)carbonylamino}-3-pyridyl)-1,3-dicyclopropylxanthine], the “% Inhibition of NECA” value was “+ (1% to 33% = +)”.
In the case of `CCCn1c(=O)n(CCCOC)c(=O)c2[nH]c(-c3ccc(N(CCCN4CCCC4=O)C(=O)C4CC4)nc3)nc21` [Example 18, 8-(6-{[3-(2-Oxo-1-pyrrolidinyl)propyl](cyclopropyl)carbonylamino}-3-pyridyl)-1-(3-methoxypropyl)-3-propylxanthine], the “% Inhibition of NECA” value is reported as “+ (1% to 33% = +)”.
`CCCn1c(=O)n(CCCOC)c(=O)c2[nH]c(-c3ccc(N(CCCN4CCCC4=O)C(=O)C(C)(C)C)nc3)nc21` [Example 19, 8-(6-{[3-(2-Oxo-1-pyrrolidinyl)propyl](tert-butyl)carbonylamino}-3-pyridyl)-1-(3-methoxypropyl)-3-propylxanthine] was tested, and the “% Inhibition of NECA” value was “+ (1% to 33% = +)”.
In the case of `CCCn1c(=O)n(CCCOC)c(=O)c2[nH]c(-c3ccc(N(CCCN4CCCC4=O)C(=O)c4ccc(C(F)(F)F)nc4)nc3)nc21` [Example 20, 8-(6-{N-[3-(2-Oxo-1-pyrrolidinyl)propyl](6-trifluoromethyl-3-pyridyl)carbonylamino}-3-pyridyl)-1-(3-methoxypropyl)-3-propylxanthine], the “% Inhibition of NECA” value is reported as “++ (33% to 67% = ++)”.
For `CCCn1c(=O)n(CCCOC)c(=O)c2[nH]c(-c3ccc(N(CCCN4CCCC4=O)C(=O)C4CCCC4)nc3)nc21` [Example 21, 8-(6-{[3-(2-Oxo-1-pyrrolidinyl)propyl](cyclopentyl)carbonylamino}-3-pyridyl)-1-(3-methoxypropyl)-3-propylxanthine], the “% Inhibition of NECA” value was “+ (1% to 33% = +)”.
`CCCn1c(=O)c2[nH]c(-c3ccc(N(CCCN4CCCC4=O)C(=O)c4ccc(F)nc4)nc3)nc2n(CCCOC)c1=O` [Example 22, 8-(6-{N-[3-(2-Oxo-1-pyrrolidinyl)propyl](6-fluoro-3-pyridyl)carbonylamino}-3-pyridyl)-3-(3-methoxypropyl)-1-propylxanthine] was tested, and the “% Inhibition of NECA” value was “+ (1% to 33% = +)”.
With `CCCn1c(=O)n(CCNC(C)=O)c(=O)c2[nH]c(-c3ccc(N(CCCN4CCCC4=O)C(=O)c4ccc(F)nc4)nc3)nc21` [Example 23, 8-(6-{[3-(2-Oxo-1-pyrrolidinyl)propyl](6-fluoro-3-pyridyl)carbonylamino}-3-pyridyl)-1-(2-acetylaminoethyl)-3-propylxanthine] the “% Inhibition of NECA” value was “+ (1% to 33% = +)”.
For `COc1cccc(C(=O)N(CCCN2CCCC2=O)c2ccc(-c3nc4c([nH]3)c(=O)n(C3CC3)c(=O)n4C3CC3)cn2)c1` [Example 24, 8-(6-{[3-(2-Oxo-1-pyrrolidinyl)propyl](3-methoxyphenyl)carbonylamino}-3-pyridyl)-1,3-dicyclopropylxanthine], the “% Inhibition of NECA” value was “+++ (67% to 100% = +++)”.
For `O=C1CCCN1CCCN(C(=O)c1ccc(Cl)nc1)c1ccc(-c2nc3c([nH]2)c(=O)n(C2CC2)c(=O)n3C2CC2)cn1` [Example 25, 8-(6-{[3-(2-Oxo-1-pyrrolidinyl)propyl](6-chloro-3-pyridyl)carbonylamino}-3-pyridyl)-1,3-dicyclopropylxanthine], the “% Inhibition of NECA” value was “+++ (67% to 100% = +++)”.
In the case of `COc1ccc(C(=O)N(CCCN2CCCC2=O)c2ccc(-c3nc4c([nH]3)c(=O)n(C3CC3)c(=O)n4C3CC3)cn2)cc1F` [Example 26, 8-(6-{[3-(2-Oxo-1-pyrrolidinyl)propyl](3-fluoro-4-methoxyphenyl)carbonylamino}-3-pyridyl)-1,3-dicyclopropylxanthine], the “% Inhibition of NECA” value is reported as “+++ (67% to 100% = +++)”.
